Molecular target: T1, human condensin I tetramer lacking NCAPD2 (human, UniProt O95347; Q9NTJ3; Q15003; Q9BPX3)
T1 construct: SMC2, human condensin I subunit; SMC4, human condensin I subunit; NCAPH, human condensin I kleisin subunit; NCAPG, human condensin I HAWK subunit; The complex carries a strep tag; also called CIΔD2; pBIG2ab Condensin I delD2 strep; source: Sf9 insect cells (baculovirus), co-expressed, purified (StrepTrap, heparin, SEC); copies: + + +
Experiment: mass photometry; Refeyn TwoMP; HAWK subunit added to the tetramer; 20 mM HEPES pH 8, 150 mM KCl; final protein ~7 nM
Settings: both partners purified

T1 sequence (O95347 whole entry, chain 1 of 4): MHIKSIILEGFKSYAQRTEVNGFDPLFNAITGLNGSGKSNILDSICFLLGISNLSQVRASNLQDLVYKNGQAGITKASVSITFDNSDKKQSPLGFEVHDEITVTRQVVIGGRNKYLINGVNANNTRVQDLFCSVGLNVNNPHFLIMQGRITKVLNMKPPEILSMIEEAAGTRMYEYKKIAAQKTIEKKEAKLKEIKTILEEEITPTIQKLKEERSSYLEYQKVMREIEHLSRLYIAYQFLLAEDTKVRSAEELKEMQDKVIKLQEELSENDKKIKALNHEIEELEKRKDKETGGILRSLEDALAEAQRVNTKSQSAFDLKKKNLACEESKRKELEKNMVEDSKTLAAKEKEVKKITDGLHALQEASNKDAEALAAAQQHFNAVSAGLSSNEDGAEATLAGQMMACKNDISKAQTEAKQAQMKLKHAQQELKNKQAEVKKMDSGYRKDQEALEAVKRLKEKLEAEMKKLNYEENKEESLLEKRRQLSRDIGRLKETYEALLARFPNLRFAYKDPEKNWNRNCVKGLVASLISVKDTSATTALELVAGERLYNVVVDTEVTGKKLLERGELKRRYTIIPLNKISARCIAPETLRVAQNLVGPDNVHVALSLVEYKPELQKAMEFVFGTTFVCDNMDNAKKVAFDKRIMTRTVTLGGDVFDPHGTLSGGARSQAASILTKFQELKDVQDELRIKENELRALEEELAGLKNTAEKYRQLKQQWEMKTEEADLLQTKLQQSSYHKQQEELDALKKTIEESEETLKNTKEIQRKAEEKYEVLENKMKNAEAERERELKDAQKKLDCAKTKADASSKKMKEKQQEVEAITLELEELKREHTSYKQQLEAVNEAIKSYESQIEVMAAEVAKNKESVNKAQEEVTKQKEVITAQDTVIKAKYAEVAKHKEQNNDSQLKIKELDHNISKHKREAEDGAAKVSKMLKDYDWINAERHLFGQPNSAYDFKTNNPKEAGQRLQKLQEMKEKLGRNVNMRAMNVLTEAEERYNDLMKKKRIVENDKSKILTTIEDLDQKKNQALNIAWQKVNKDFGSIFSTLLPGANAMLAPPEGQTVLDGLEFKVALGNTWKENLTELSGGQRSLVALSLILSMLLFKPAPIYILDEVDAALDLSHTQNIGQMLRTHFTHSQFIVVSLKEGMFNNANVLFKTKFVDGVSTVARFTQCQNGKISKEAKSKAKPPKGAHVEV
T1 sequence (Q9NTJ3 whole entry, chain 2 of 4, further chain): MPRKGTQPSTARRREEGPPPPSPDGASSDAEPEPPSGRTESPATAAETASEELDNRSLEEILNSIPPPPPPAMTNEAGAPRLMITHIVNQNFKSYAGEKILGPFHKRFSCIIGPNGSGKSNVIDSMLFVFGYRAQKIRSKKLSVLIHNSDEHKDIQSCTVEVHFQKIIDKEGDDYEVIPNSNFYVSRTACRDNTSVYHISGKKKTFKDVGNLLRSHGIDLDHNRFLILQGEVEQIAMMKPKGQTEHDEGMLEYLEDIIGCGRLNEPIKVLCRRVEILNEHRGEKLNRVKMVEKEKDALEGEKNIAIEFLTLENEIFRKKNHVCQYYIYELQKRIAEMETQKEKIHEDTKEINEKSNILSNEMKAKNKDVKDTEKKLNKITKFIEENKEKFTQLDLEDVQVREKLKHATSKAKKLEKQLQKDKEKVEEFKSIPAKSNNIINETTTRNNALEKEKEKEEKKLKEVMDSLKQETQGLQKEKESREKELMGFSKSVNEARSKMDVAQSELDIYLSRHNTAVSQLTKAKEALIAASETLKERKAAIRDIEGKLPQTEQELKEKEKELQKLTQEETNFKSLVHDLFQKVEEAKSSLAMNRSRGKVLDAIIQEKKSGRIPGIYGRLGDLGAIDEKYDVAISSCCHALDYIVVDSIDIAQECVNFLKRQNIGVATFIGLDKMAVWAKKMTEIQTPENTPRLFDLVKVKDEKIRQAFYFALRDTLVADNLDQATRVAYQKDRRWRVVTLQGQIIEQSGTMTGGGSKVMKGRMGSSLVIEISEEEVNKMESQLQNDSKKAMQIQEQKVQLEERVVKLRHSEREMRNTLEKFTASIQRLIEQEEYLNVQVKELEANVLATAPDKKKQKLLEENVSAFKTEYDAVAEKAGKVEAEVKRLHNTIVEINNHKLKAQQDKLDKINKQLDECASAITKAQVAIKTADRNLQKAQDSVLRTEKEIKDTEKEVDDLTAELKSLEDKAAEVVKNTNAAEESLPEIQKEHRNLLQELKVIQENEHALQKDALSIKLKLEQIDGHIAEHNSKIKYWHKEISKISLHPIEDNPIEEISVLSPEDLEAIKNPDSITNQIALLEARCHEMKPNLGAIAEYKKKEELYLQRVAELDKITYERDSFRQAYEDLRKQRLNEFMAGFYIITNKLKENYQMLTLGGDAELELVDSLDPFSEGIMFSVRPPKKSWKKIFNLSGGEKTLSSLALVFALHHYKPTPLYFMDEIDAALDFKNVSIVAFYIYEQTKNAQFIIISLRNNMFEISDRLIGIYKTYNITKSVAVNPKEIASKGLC
T1 sequence (Q15003 whole entry, chain 3 of 4, further chain): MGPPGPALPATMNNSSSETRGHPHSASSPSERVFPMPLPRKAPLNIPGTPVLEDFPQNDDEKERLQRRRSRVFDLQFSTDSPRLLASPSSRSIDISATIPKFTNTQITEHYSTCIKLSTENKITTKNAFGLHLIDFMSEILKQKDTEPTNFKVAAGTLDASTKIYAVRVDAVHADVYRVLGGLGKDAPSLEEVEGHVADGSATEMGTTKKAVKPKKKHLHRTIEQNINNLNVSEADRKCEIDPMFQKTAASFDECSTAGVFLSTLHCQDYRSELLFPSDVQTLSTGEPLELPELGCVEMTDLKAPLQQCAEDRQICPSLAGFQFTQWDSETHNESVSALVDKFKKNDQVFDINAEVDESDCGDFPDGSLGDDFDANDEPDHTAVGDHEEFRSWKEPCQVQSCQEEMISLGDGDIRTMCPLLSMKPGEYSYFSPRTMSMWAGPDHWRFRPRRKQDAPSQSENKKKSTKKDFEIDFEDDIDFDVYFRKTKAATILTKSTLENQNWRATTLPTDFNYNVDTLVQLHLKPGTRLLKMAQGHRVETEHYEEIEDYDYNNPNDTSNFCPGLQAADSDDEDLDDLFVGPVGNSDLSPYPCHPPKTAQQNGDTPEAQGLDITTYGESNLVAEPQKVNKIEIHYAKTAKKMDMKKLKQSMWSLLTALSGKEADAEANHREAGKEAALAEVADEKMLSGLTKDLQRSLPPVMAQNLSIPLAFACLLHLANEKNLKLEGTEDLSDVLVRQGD
T1 sequence (Q9BPX3 whole entry, chain 4 of 4, further chain): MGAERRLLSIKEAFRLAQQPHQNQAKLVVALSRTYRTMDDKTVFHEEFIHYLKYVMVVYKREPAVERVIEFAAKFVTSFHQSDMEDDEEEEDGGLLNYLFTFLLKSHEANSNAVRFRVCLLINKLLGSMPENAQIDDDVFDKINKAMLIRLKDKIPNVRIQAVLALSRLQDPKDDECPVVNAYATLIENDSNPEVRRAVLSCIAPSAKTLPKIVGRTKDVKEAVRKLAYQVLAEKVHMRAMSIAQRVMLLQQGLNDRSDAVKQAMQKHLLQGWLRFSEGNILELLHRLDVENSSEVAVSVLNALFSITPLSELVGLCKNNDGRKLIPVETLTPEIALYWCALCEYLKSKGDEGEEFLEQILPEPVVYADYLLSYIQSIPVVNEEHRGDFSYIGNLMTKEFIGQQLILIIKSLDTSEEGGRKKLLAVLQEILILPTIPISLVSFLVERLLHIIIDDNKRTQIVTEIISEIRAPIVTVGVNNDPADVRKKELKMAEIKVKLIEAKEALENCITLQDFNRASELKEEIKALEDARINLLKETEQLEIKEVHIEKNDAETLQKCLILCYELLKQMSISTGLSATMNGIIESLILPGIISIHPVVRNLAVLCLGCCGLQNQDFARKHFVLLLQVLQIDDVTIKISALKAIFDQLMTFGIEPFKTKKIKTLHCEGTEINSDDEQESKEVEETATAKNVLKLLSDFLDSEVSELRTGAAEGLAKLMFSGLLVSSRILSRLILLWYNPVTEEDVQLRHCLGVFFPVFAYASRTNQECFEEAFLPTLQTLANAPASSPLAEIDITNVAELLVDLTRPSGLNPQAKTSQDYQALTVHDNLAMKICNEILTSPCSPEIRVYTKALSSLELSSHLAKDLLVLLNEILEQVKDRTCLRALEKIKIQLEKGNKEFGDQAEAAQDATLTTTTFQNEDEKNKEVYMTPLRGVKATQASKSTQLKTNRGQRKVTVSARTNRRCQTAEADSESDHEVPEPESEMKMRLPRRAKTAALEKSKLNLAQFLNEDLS

B1: NCAPD2 (recombinant human condensin I HAWK subunit) (natural protein)
chain: not shown
notes: NCAPD2, human condensin I HAWK subunit; also called NCAPD2 alone; pLIB NCAPD2 ystrep; source: Sf9 insect cells (baculovirus), purified (StrepTrap, heparin, SEC)
binding result: binds

Source: publication PMC11790958 (The EMBO Journal, 2024)
